PubChem BioAssay AID463173 (ICCB-Longwood Screening Facility, Harvard Medical School, 2010)
About 4,300 (8.3%) of roughly 52,000 compounds were called active. Rule as the data show it: active = survival mostly below about 52% (no sharp cut-off); inactive = mostly above about 56%. The list shows a part of the results.

Test system: DeltatarO mutant
Assay: growth inhibition of S. aureus wild type versus tarO mutant, primary screen, teichoic acid synthesis inhibitors, RN4220, OD600 (AID 463173)
Conditions: OD600, 18 h, active compounds read low, screened at 18.75 µg/mL (by protocol)

SMILES	survival
CC(C)(C)c1ccc(S(=O)(=O)N2CCC(c3ccncc3)CC2)cc1	inactive: 109%
CCOc1ccc(NC(=O)Cn2c(=O)n(Cc3ccccc3)c(=O)c3c4c(sc32)CN(C(C)=O)CC4)cc1	inactive: 80%
O=C(Nc1cccnc1)C1CC(c2ccccc2O)=NO1 (stereo unspecified)	inactive: 103%
Cc1ccc(NC(=O)CN2C(=O)COc3ccc(S(=O)(=O)N4CCOCC4)cc32)c(Cl)c1	inactive: 91%
COc1cccc(-n2cc(C(=O)Nc3ccccc3C(N)=O)c3ccccc3c2=O)c1	inactive: 67%
Cc1nc(SCCOc2ccc(Cl)cc2)[nH]c(=O)c1Cc1ccccc1	inactive: 72%
O=C(O)c1csc2c1CCCC2	inactive: 85%
Cc1ccccc1CNC(=O)Cn1cc2c(n1)-c1c(oc(C(=O)N3CCCC3)c1C)CC2	inactive: 107%
COc1ccccc1NC(=O)C1=C(C)Nc2ncnn2C1c1sccc1C (stereo unspecified)	inactive: 94%
COc1ccc(N2CC(NC(=O)C3CCCC3)CC2=O)cc1 (stereo unspecified)	inactive: 83%
COc1ccc(OC)c(CNC(=O)CCC(=O)N2Cc3ccccc3Oc3ncccc32)c1	inactive: 112%
COc1ccc2nc(NC(=O)c3nc(SCc4cccc(C)c4)ncc3Cl)sc2c1	active: 37%
CNc1nc(Oc2ccc(=O)[nH]n2)nc(N2CCOCC2)n1	inactive: 77%
O=C(CSc1nnc(Cc2ccccc2)n1Cc1ccccc1)NCc1ccco1	inactive: 63%
COc1ccc(-n2cc(C(=O)Nc3ccccc3C#N)c3ccccc3c2=O)cc1	inactive: 107%
COc1cccc(CNC(=O)c2cccc(NC(=O)c3nsc4ccccc34)c2)c1	inactive: 89%
COc1cc(Cl)c(NC(=O)CN(C)S(=O)(=O)c2ccc3[nH]c4c(c3c2)CCCC4)c(OC)c1	inactive: 96%
CCCOc1ccc(CNC(=O)Cn2c(=O)oc3ccccc32)cc1	inactive: 80%
CCOc1ccc(OCC)c(NC(=O)CSc2nc3c(c(=O)n(C)c(=O)n3C)n2C(C)C)c1	inactive: 92%

SMILES	survival
Cc1ccc(CNC(=O)c2cnn(-c3ccc(F)cc3F)c2C2CCN(C(=O)OC(C)(C)C)CC2)cc1	inactive: 84%
CCCOc1ccc(C2C(=O)N(C3CCCCC3)CC(=O)N2CCC2=CCCCC2)cc1OC (stereo unspecified)	inactive: 94%
COc1cccc(CNC(=O)CC(c2ccc(C)cc2)N2Cc3ccccc3C2=O)c1 (stereo unspecified)	inactive: 74%
CCOC(=O)C(CC)Sc1nnc2[nH]c(=O)cc(C)n12 (stereo unspecified)	active: 52%
COc1ccc(NS(=O)(=O)c2ccc3c(c2)n(C)c(=O)c(=O)n3C)cc1Cl	inactive: 82%
CC(=O)c1c(C)oc2ccc(N(C(=O)c3ccncc3)S(=O)(=O)c3ccc(F)cc3C)cc12	inactive: 116%
COc1ccc(N(CC(=O)N2CCN(c3ccc(F)cc3)CC2)S(=O)(=O)c2c(C)nn(C)c2C)cc1	inactive: 80%
Cc1cc(C)cc(NC(=O)CN(C)S(=O)(=O)c2ccc3c(c2)CCC(=O)N3)c1	inactive: 90%
Cc1cccc(C(=O)Nc2sc3c(c2C(=O)O)CCCC3)c1	active: 23%
Cc1nn2c(=O)cc(COC(=O)c3ccc(NC(=O)c4ccc(C(C)(C)C)cc4)cc3)nc2s1	inactive: 80%
Cc1csc2nc(-c3cccc(NC(=O)c4ccccc4F)c3)cn12	inactive: 126%
O=C(CSc1n[nH]c(-c2ccccc2)n1)NCCc1ccccc1	inactive: 78%
COc1cccc(CNC(=O)CCS(=O)(=O)c2cc3c4c(c2)CCN4C(=O)CC3)c1	inactive: 68%
CCOC(=O)c1cc2c(=O)n3ccccc3nc2n(CC2CCCO2)c1=NC(=O)c1ccccc1F (stereo unspecified)	active: 44%
COc1ccc(CNC(=O)C(C)n2nc(C)c3sc4ccccc4c3c2=O)cc1OC (stereo unspecified)	inactive: 67%
Cc1ccccc1NC(=O)CSc1nnc(-c2cccc(Cl)c2)o1	inactive: 77%
COc1ccccc1-c1ccnc2c(-c3ccc(Br)cc3)c(C)nn12	inactive: 94%
CCc1ccc(Cn2c(CNS(=O)(=O)c3ccc(Cl)s3)nc3cccnc32)cc1	inactive: 66%
Cc1ccc(S(=O)(=O)c2c(Nc3ccccc3)sc(C(=O)c3ccc4c(c3)OCO4)c2N)cc1	inactive: 82%

SMILES	survival
CCCC(=Nc1ccccc1O)C1=C(O)CC(CC(C)SCC)CC1=O (stereo unspecified)	inactive: 88%
COCCn1nnnc1CN1CCC(NC(=O)Nc2cccc(OC)c2)CC1	inactive: 71%
Cc1nn2c(=O)cc(COC(=O)c3ccccc3NC(=O)C(C)C)nc2s1	inactive: 80%
COc1cccc(-n2cc(C(=O)Oc3ccc(F)cc3)c3ccccc3c2=O)c1	inactive: 77%
COc1cc(C(=O)Nc2cccc(OCc3cc(=O)n4c(C)csc4n3)c2)cc(OC)c1OC	inactive: 98%
CCOC(=O)c1ccc(N=c2sc(C(=O)OC)cc(=O)n2C2CC2)cc1	inactive: 79%
COc1ccc(S(=O)(=O)N2CCC(c3nnc(-c4ccccc4C)o3)CC2)c(OC)c1	inactive: 81%
CCN1C(=O)C(O)(C(C)C(=O)c2ccccc2)c2ccccc21 (stereo unspecified)	inactive: 57%
Cc1c(Cl)ccc2sc(NC(=O)c3ccc(S(=O)(=O)N4CCCC4)cc3)nc12	inactive: 75%
COc1ccc(-c2nc(SCC(=O)NCC3CCCO3)c(-c3ccc(Cl)cc3)[nH]2)cc1 (stereo unspecified)	inactive: 75%
COc1ccc(OC)c(NC(=O)Cn2ccn(-c3ccc(F)cc3)c(=O)c2=O)c1	inactive: 52%
O=C(NCc1ccc2c(c1)CCN2C(=O)c1ccncc1)c1ccccc1Br	inactive: 72%
COc1ccc(C)cc1S(=O)(=O)Nc1cccc(-c2ccc(N3CCCC3)nn2)c1	inactive: 78%
O=C(CC(c1cccs1)N1Cc2ccccc2C1=O)Nc1ccccc1 (stereo unspecified)	inactive: 70%
CCN1CCN(C(=O)Cn2ncc3c4ccccc4n(Cc4ccccc4F)c3c2=O)CC1	inactive: 95%
Cc1cccc(N2CCN(C(c3ccc(F)cc3)c3nnc(-c4ccccc4)o3)CC2)c1C (stereo unspecified)	active: 39%
COc1cccc(N2CCN(C(=O)c3cnc4c(C)cccn4c3=O)CC2)c1	inactive: 84%
CC(C)Oc1ccc(CNC(=O)C2CCN(C(=O)N3CCOc4ccc(Cl)cc43)CC2)cc1	inactive: 48%
